Experimental data as given in patent US20230250147A1 (Sanofi, published 2023).
Values belong to the binder of their own block, whether it stands above or below them.

Columns and labels:
Test in all cases: cell-based or functional assay
[1] = target: human glucagon-like peptide-1 (GLP-1) receptor (human, UniProt P43220 24-463)
Mouse GLP-1R = target: T1, Mouse GLP-1R (mouse, UniProt O35659 22-463)
T1 sequence (looked up): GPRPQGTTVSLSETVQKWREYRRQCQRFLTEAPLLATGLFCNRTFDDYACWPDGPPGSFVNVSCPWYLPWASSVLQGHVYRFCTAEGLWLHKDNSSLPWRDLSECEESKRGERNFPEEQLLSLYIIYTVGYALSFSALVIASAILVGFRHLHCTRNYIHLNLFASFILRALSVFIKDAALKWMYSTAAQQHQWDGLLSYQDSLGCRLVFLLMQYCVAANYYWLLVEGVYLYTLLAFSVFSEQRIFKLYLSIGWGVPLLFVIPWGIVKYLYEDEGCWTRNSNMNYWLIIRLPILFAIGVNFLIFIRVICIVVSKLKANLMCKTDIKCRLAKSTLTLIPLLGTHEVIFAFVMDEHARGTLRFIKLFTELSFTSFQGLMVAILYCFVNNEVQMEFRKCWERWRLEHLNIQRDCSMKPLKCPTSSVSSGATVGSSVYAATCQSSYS

Monkey GLP-1R = Monkey GLP-1R (monkey)

B2: GLP-1RA/FGF21 Fc fusion protein SEQ ID NO: 63 (Fc fusion)
chain: YGEGTFTSDKSKQLEKRLAHLFIEWLIKGGHSSGKPPPKGGGGGGGSGGGGSGGGGSA[… human IgG4 Fc with changes …]GGGSGSAHPIPDSSPLLQFGGQVRQRYLYTDDACQTEAHLEIREDGTVGGAADQSPESLLQLKALKPGVIQILGVKTSRFLCQRPDGALYGSLHFDPEACSFRELLLEDGYNVYQSEAHGLPLHLPGCKSPHRDPAPRGPARFLPLPGLPPAPPEPPGILAPQPPDVGSSDPLSMVGSQGRSPSYAS
HTRF cAMP EC50 [1]: 0.0954 nM | HTRF cAMP EC50 (Mouse GLP-1R): 0.0543 nM | HTRF cAMP EC50 (Monkey GLP-1R): 0.0526 nM

B3: GLP-1RA/FGF21 Fc fusion protein SEQ ID NO: 61 (Fc fusion)
chain: YGEGTFTSDKSKQLEKRLAHLFIEWLIAGGHSSGKPPPKGGGGGGGSGGGGSGGGGSA[… human IgG4 Fc with changes …]GGGSGSAHPIPDSSPLLQFGGQVRQRYLYTDDACQTEAHLEIREDGTVGGAADQSPESLLQLKALKPGVIQILGVKTSRFLCQRPDGALYGSLHFDPEACSFRELLLEDGYNVYQSEAHGLPLHLPGCKSPHRDPAPRGPARFLPLPGLPPAPPEPPGILAPQPPDVGSSDPLSMVGSQGRSPSYAS
HTRF cAMP EC50 [1]: 0.0683 nM | HTRF cAMP EC50 (Mouse GLP-1R): 0.043 nM | HTRF cAMP EC50 (Monkey GLP-1R): 0.0402 nM

B6: GLP-1RA/FGF21 Fc fusion protein SEQ ID NO: 64 (Fc fusion)
chain: HTEGTFTSDKSKQLEKRLVRLFIEWLIKGGHSSGKPPPKGGGGGGGSGGGGSGGGGSA[… human IgG4 Fc with changes …]GGGSGSAHPIPDSSPLLQFGGQVRQRYLYTDDACQTEAHLEIREDGTVGGAADQSPESLLQLKALKPGVIQILGVKTSRFLCQRPDGALYGSLHFDPEACSFRELLLEDGYNVYQSEAHGLPLHLPGCKSPHRDPAPRGPARFLPLPGLPPAPPEPPGILAPQPPDVGSSDPLSMVGSQGRSPSYAS
HTRF cAMP EC50 [1]: 0.00909 nM | HTRF cAMP EC50 (Mouse GLP-1R): 0.00608 nM | HTRF cAMP EC50 (Monkey GLP-1R): 0.00747 nM

B8: GLP-1RA/FGF21 Fc fusion protein SEQ ID NO: 62 (Fc fusion)
chain: YGEGTFTSDKSKQLEKRLVRLFIEWLIKGGHSSGKPPPKGGGGGGGSGGGGSGGGGSA[… human IgG4 Fc with changes …]GGGSGSAHPIPDSSPLLQFGGQVRQRYLYTDDACQTEAHLEIREDGTVGGAADQSPESLLQLKALKPGVIQILGVKTSRFLCQRPDGALYGSLHFDPEACSFRELLLEDGYNVYQSEAHGLPLHLPGCKSPHRDPAPRGPARFLPLPGLPPAPPEPPGILAPQPPDVGSSDPLSMVGSQGRSPSYAS
HTRF cAMP EC50 [1]: 0.0203 nM | HTRF cAMP EC50 (Mouse GLP-1R): 0.0134 nM | HTRF cAMP EC50 (Monkey GLP-1R): 0.0129 nM

The remaining lines, values ahead:

HTRF cAMP EC50 [1]: 0.0865 nM | HTRF cAMP EC50 (Mouse GLP-1R): 0.0651 nM | HTRF cAMP EC50 (Monkey GLP-1R): 0.0869 nM
B1: GLP-1RA/FGF21 Fc fusion protein SEQ ID NO: 198 (Fc fusion)
chain: HGEGTFTSDLSKQLEKELVRLFYEWLIAGGHSSQRPPPKGGGGGGGSGGGGSGGGGSA[… human IgG4 Fc with changes …]GGGSGSAHPIPDSSPLLQFGGQVRQRYLYTDDACQTEAHLEIREDGTVGGAADQSPESLLQLKALKPGVIQILGVKTSRFLCQRPDGALYGSLHFDPEACSFRELLLEDGYNVYQSEAHGLPLHLPGCKSPHRDPAPRGPARFLPLPGLPPAPPEPPGILAPQPPDVGSSDPLSMVGSQGRSPSYAS

HTRF cAMP EC50 [1]: 0.102 nM | HTRF cAMP EC50 (Mouse GLP-1R): 0.098 nM | HTRF cAMP EC50 (Monkey GLP-1R): 0.149 nM
B4: GLP-1RA/FGF21 Fc fusion protein SEQ ID NO: 192 (Fc fusion)
chain: HGEGTFTSDLSKQLEERLARLFYEWLIAGGHSSQKPPPKGGGGGGGSGGGGSGGGGSA[… human IgG4 Fc with changes …]GGGSGSAHPIPDSSPLLQFGGQVRQRYLYTDDACQTEAHLEIREDGTVGGAADQSPESLLQLKALKPGVIQILGVKTSRFLCQRPDGALYGSLHFDPEACSFRELLLEDGYNVYQSEAHGLPLHLPGCKSPHRDPAPRGPARFLPLPGLPPAPPEPPGILAPQPPDVGSSDPLSMVGSQGRSPSYAS

HTRF cAMP EC50 [1]: 0.0499 nM | HTRF cAMP EC50 (Mouse GLP-1R): 0.0674 nM | HTRF cAMP EC50 (Monkey GLP-1R): 0.0494 nM
B5: GLP-1RA/FGF21 Fc fusion protein SEQ ID NO: 81 (Fc fusion)
chain: HGEGTFTSDKSKQLEKRLVRLFIYWLIAGGHSSGKPPPKGGGGGGGSGGGGSGGGGSA[… human IgG4 Fc with changes …]GGGSGSAHPIPDSSPLLQFGGQVRQRYLYTDDACQTEAHLEIREDGTVGGAADQSPESLLQLKALKPGVIQILGVKTSRFLCQRPDGALYGSLHFDPEACSFRELLLEDGYNVYQSEAHGLPLHLPGCKSPHRDPAPRGPARFLPLPGLPPAPPEPPGILAPQPPDVGSSDPLSMVGSQGRSPSYAS

HTRF cAMP EC50 [1]: 0.0135 nM | HTRF cAMP EC50 (Mouse GLP-1R): 0.0183 nM | HTRF cAMP EC50 (Monkey GLP-1R): 0.0137 nM
B7: GLP-1RA/FGF21 Fc fusion protein SEQ ID NO: 74 (Fc fusion)
chain: HGEGTFTSDKSKQLEKRLVILFIEWLIAGGHSSGKPPPKGGGGGGGSGGGGSGGGGSA[… human IgG4 Fc with changes …]GGGSGSAHPIPDSSPLLQFGGQVRQRYLYTDDACQTEAHLEIREDGTVGGAADQSPESLLQLKALKPGVIQILGVKTSRFLCQRPDGALYGSLHFDPEACSFRELLLEDGYNVYQSEAHGLPLHLPGCKSPHRDPAPRGPARFLPLPGLPPAPPEPPGILAPQPPDVGSSDPLSMVGSQGRSPSYAS

HTRF cAMP EC50 [1]: 0.0745 nM | HTRF cAMP EC50 (Mouse GLP-1R): 0.0566 nM | HTRF cAMP EC50 (Monkey GLP-1R): 0.0718 nM
B9: GLP-1RA/FGF21 Fc fusion protein SEQ ID NO: 195 (Fc fusion)
chain: HGEGTFTSDLSKQLEKELVRLFYEWLINGGHSKGKPPPKGGGGGGGSGGGGSGGGGSA[… human IgG4 Fc with changes …]GGGSGSAHPIPDSSPLLQFGGQVRQRYLYTDDACQTEAHLEIREDGTVGGAADQSPESLLQLKALKPGVIQILGVKTSRFLCQRPDGALYGSLHFDPEACSFRELLLEDGYNVYQSEAHGLPLHLPGCKSPHRDPAPRGPARFLPLPGLPPAPPEPPGILAPQPPDVGSSDPLSMVGSQGRSPSYAS
